PubChem BioAssay AID624417 (National Center for Advancing Translational Sciences (NCATS), 2012)
The whole screen tested about 410,000 compounds, of which about 6,400 (1.6%) were called active. This list was built around the results that the source calls inconclusive (neither active nor inactive); the mix of calls is not that of the screen. The call rests on the fitted dose curve; in most records, active means well fitted inhibition curve with a large enough effect; inconclusive means small, poorly fitted or top-dose-only effect; inactive means no such curve, though single readings can be large or run the other way. Where the call is inconclusive, the potency comes from a doubtful curve fit.

molecular target: Glucagon-like peptide 1 receptor (Homo sapiens) (UniProt P43220); assay: qHTS of GLP-1 Receptor Inverse Agonists (Inhibition Mode); settings: HEK293 GLP-1R CRE-luciferase, luminescence, 24 h, GLP-1R form is constitutively active; series mostly up to 38.3 µM; further: nearly all actives have a fitted effect of over 55% in size
Chain of UniProt P43220 (P43220 whole entry, looked up): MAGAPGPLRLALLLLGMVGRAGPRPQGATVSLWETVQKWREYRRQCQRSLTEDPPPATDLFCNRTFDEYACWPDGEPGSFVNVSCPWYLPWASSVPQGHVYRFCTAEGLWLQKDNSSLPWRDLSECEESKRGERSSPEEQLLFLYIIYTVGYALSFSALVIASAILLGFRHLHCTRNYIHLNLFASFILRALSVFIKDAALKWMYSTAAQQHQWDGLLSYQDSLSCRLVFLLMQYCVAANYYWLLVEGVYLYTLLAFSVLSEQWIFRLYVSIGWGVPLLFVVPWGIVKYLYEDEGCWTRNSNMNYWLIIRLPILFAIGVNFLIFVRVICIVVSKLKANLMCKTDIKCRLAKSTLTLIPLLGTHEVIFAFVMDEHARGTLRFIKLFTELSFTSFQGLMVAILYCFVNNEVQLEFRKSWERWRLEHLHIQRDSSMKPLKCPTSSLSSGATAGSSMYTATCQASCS
How it was run: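 Inverse agonists were sought by their lowering of basal cAMP reporter luciferase output in HEK293 cells stably carrying constitutively active human GLP-1R, after 24 h compound treatment.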
Potency means the concentration at half of the fitted maximal effect; tags describe the fitted curve by direction and shape.

Potency, active:
O=C(COc1ccccc1)Nc1ccccc1N1CCCCC1 11.2 µM
COc1cc(CNCCN2CCOCC2)ccc1OCc1ccc(Cl)cc1Cl 3.16 µM
Cc1cc(C)c2sc(N(CCN(C)C)C(=O)c3c(F)cccc3F)nc2c1 7.08 µM
CN(Cc1ccccc1)C(=O)CSc1nnc(-c2cccc(Cl)c2)o1 10 µM

Potency, inconclusive:
CC(C)NC(=O)NNC(=O)c1cc(COc2cc(Cl)cc(Cl)c2)on1 11.2 µM [inhibitor, single point]
O=C(Nc1ccc(S(=O)(=O)N2CCCCC2)cc1)C1CC(=O)N(c2ccccc2)C1 (stereo unspecified) 8.91 µM [inhibitor, partial curve]
Cc1cccc(NC(=S)N/N=C/c2c[nH]c3ccccc23)c1 10 µM [inhibitor, single point]
CCN(CC)CCN1c2ccccc2Sc2ccc3ccccc3c21 5.62 µM [inhibitor, partial curve, poor fit]
Cc1ccc(OCc2cc(C(=O)N3CCN(C4CCCCC4)CC3)no2)cc1C 11.2 µM [inhibitor, single point]
CCC(=O)Nc1c(S(=O)(=O)c2ccccc2)c2nc3ccccc3nc2n1C(C)c1ccccc1 (stereo unspecified) 28.2 µM [inhibitor, single point]
COC(=O)C1=C(C)NC(=O)CC1c1cc(Br)ccc1F (stereo unspecified) 10 µM [inhibitor, partial curve]
O=C(NCCc1ccccc1)C(c1cccs1)N(C(=O)CCl)c1ccc(Cl)cc1 (stereo unspecified) 22.4 µM [inhibitor, single point]
O=C(Cc1ccc(Cl)cc1)Nc1ccc(Br)cc1 10 µM [inhibitor, single point]
Fc1ccccc1-c1nc(N2CCN(c3cccc(Cl)c3)CC2)c2ccccc2n1 28.2 µM [inhibitor, single point]
O=C(CN1C(=O)CCSc2ccc(S(=O)(=O)N3CCOCC3)cc21)Nc1cccc(F)c1 28.2 µM [inhibitor, single point]
COc1ccc(OCc2cc(C(=O)NCC(C)(C)N3CCOCC3)no2)c(Cl)c1 5.01 µM [inhibitor, full curve]
CCN(CC)S(=O)(=O)c1cccc(-c2nnc(SCC(=O)c3cc(C)n(C)c3C)o2)c1 12.6 µM [inhibitor, single point]
C[N+]1(CCOC(=O)C2(c3ccccc3)CCCC2)CCCCC1 17.8 µM [inhibitor, single point]
O=[N+]([O-])c1ccccc1S(=O)(=O)N1CCN(c2ccc(F)cc2)CC1 28.2 µM [inhibitor, single point]
COc1cccc(C(=O)C2CCCN(Cc3cccn3-c3cccnc3)C2)c1 (stereo unspecified) 8.91 µM [inhibitor, partial curve, poor fit]
Cc1ccc(OCCn2c(=O)sc3ccccc32)cc1 28.2 µM [inhibitor, single point]
C[C@]12c3[nH]c4ccc(Cl)cc4c3CCN1C(=O)[C@@H](CC(=O)NCCC1=CCCCC1)C[C@@H]2C(=O)N1CCOCC1 20 µM [inhibitor, single point]
Cc1ccc(C)c(OCC(=O)NCC(c2ccco2)N2CCCCC2)c1 (stereo unspecified) 12.6 µM [inhibitor, partial curve, poor fit]
Cc1cccc(N2CCN(C(=O)c3ccccc3NC(=O)C3=CSCCO3)CC2C)c1 (stereo unspecified) 15.8 µM [inhibitor, partial curve, poor fit]
CCCCn1c(CNC(=O)C23CC4CC(CC(C4)C2)C3)nnc1SCC(=O)Nc1ccc(C)cc1 22.4 µM [inhibitor, single point]
Nc1ccc2nc(SCC(=O)N3CCN(c4ccccc4)CC3)sc2c1 20 µM [inhibitor, single point]
CC1CCCCN1Cc1c(O)ccc2c(=O)c(-c3ccccc3Cl)c(C(F)(F)F)oc12 (stereo unspecified) 12.6 µM [inhibitor, single point]
COCCNC(=S)N1CCc2cc(OC)c(OC)cc2C1COc1ccc(C(C)C)cc1 (stereo unspecified) 7.94 µM [inhibitor, partial curve, poor fit]
CC(C)(C)Nc1ncnc2sc(-c3ccccc3)cc12 1.12 µM [inhibitor, full curve, poor fit]
O=C(CNCCC1=CCCCC1)Nc1ccc(N2CCCCCC2)cc1 5.01 µM [inhibitor, full curve, poor fit]
COc1ccc(Nc2c3c(nc4ccccc24)CCC3)cc1Cl 5.01 µM [inhibitor, partial curve]
CCOc1ccc(Oc2ccccc2NC(=O)CCc2nc3ccccc3c(=O)[nH]2)cc1 31.6 µM [inhibitor, single point]
CCC(C)Sc1nc2c(c(=O)[nH]c(=O)n2C)n1Cc1ccccc1Cl (stereo unspecified) 28.2 µM [inhibitor, single point]
COc1ccccc1CN(Cc1nc2ccccc2c(=O)[nH]1)S(=O)(=O)c1ccc2ccccc2c1 22.4 µM [inhibitor, single point]
CCN(Cc1ccncc1)C(=O)c1cc(COc2c(C)cccc2C)on1 11.2 µM [inhibitor, single point]
CC1CCN(S(=O)(=O)c2ccc(C(=O)Nc3nnc(C4CC4)o3)cc2)CC1 20 µM [inhibitor, single point]
Cc1ccc(-c2cc(C(=O)N/N=C/c3cccnc3)c3ccccc3n2)cc1C 28.2 µM [inhibitor, single point]
CCn1c(COc2ccccc2)nnc1SCC(=O)Nc1ccc2c(c1)OCCO2 0.501 µM [inhibitor, full curve, poor fit]
CC(=O)c1ccc(S(=O)(=O)N2CCCC(N(C)CCc3ccccc3)C2)cc1 (stereo unspecified) 28.2 µM [inhibitor, single point]
Cc1scc(CN2CCN(c3ccccc3F)CC2)c1C 28.2 µM [inhibitor, single point]
Cc1ccccc1CN1C[C@@H]2C[C@@H](c3cn(C)nc3-c3ccccc3)N3CCC[C@@]23C1=O 28.2 µM [inhibitor, single point]
CCOc1cc(C(=O)NCc2ccco2)cc(OCC)c1OCC 12.6 µM [inhibitor, partial curve, poor fit]
CCc1ccc(-c2cc(C)no2)cc1S(=O)(=O)N1CCN(c2ccccn2)CC1 11.2 µM [inhibitor, single point]
CCCCCNC(=O)C(C1CC1)n1c(=O)c(-c2cc3ccccc3[nH]2)nc2ccccc21 (stereo unspecified) 11.2 µM [inhibitor, partial curve, poor fit]
Cn1cccc1C(=O)Nc1ccc(N2CCOCC2)cc1 10 µM [inhibitor, single point]
CCc1ccc(N=C2NC(=O)/C(=C/c3cc(OC)c(OC)c(OC)c3)S2)cc1 28.2 µM [inhibitor, single point]
CCOC(=O)Cc1nnc2c(Nc3ccc(C)cc3)nc3nonc3n12 31.6 µM [inhibitor, partial curve, poor fit]
Cc1[nH]c2ccccc2c1C(=O)COC(=O)c1cccc(S(=O)(=O)N2CCCCC2)c1 10 µM [inhibitor, partial curve, poor fit]

Potency, inactive:
Cc1ccc(-c2noc(CCC(=O)N(C)c3ccccc3F)n2)cc1
CCn1c(=O)c2c(nc3n2CCN3c2ccc(OC)cc2)n(C)c1=O
CCOc1ccc(CCNC(=O)c2cc(=O)[nH]c3ccc(S(=O)(=O)N4CCCCC4C)cc23)cc1OCC (stereo unspecified)
CCOc1ccc(-c2c(C(=O)N/N=C/c3ccco3)nnn2-c2nonc2N)cc1
O=C(Nc1cc(-c2nc3ncccc3o2)ccc1Cl)c1ccc2c(c1)OCO2
CC(=O)N1CCc2cc(Br)cc(S(=O)(=O)N3CCC(C(=O)Nc4cccc(C)c4C)CC3)c21
O=C(Nc1nc(-c2ccc(F)c(F)c2)cs1)Nc1ccc(F)cc1F
O=C(CCNc1ccc(Br)cc1)c1cccc([N+](=O)[O-])c1
COc1ccccc1C(=O)NCC[N+](C)(C)C
C=C(CC[C@@H](O)C(C)(C)O)[C@H]1CC[C@]2(C)[C@@H]1CCC1[C@@]3(C)CCC(=O)C(C)(C)C3CC[C@]12C (stereo partly specified)
O=C(Cc1cccs1)Nc1nc2c(ccc3ccccc32)s1
Nc1ncnc2c1ncn2[C@@H]1O[C@H](CNC(=O)OC[C@@H](N)Cc2ccccc2)[C@@H](O)[C@H]1O
COc1ccc(OC)c(CNC(=O)Nc2cn(CC(C)C)c(=O)c3ccccc23)c1
COc1ccc(Nc2nc(N)nc(CSc3nc(C)cc(C)n3)n2)cc1
COc1ccc(N2Cc3ccccc3/C2=N\C(=O)Nc2ccccc2)cc1
CC1=C(C(=O)Nc2ccccc2C)C(c2cccs2)n2nc(SCc3ccccc3)nc2N1 (stereo unspecified)
CCOc1cc(C)c(S(=O)(=O)Nc2ccc(Cl)cn2)cc1C
CC(C)CCOc1ccc(Cn2c(=O)oc3ccccc32)cc1
